Experimental data reported in PubChem BioAssay AID492947 (National Center for Advancing Translational Sciences (NCATS), 2010).
Out of some 330,000 compounds screened, about 80 (0.02%) were called active. Inconclusive means that the source gave no clear call. Such entries were picked first, then a sample of the others. The call rests on the fitted dose curve; in most records, active means well fitted activation curve with a large enough effect; inconclusive means small, poorly fitted or top-dose-only effect; inactive means flat fitted curve, though single readings scatter. No potency is given beside an inconclusive call; the fits are too rough.

biological target: Beta-2 adrenergic receptor (Homo sapiens) (UniProt P07550); test: qHTS assay of beta-arrestin-biased ligands of beta2-adrenergic receptor; details: beta-arrestin recruitment to beta2AR, cell-based reporter; series mostly up to 46.1 µM; activation: at the top concentration; further: nearly all actives have a fitted effect of over 65% in size;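 on activation: 0% = DMSO controls and full agonism = EC100 isoproterenol or metaproterenol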
Sequence of UniProt P07550 (P07550 whole entry, looked up): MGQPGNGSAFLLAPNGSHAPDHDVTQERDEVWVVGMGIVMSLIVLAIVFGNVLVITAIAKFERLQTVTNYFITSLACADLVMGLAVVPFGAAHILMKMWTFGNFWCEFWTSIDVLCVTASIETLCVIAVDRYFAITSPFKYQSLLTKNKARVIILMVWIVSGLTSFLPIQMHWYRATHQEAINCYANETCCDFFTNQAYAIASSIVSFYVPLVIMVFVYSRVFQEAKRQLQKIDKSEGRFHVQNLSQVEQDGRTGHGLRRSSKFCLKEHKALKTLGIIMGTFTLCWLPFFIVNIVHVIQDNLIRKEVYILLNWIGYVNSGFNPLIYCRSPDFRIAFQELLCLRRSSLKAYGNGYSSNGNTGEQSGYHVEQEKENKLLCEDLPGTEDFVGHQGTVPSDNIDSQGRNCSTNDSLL
Description: NIH Molecular Libraries Probe Production Network [MLPCN]
NIH Chemical Genomics Center [NCGC]
PI: Bryan Roth and Bob Lefkowitz
The concept of biased agonism is an emerging concept of molecular pharmacology which proposes that seven transmembrane receptors (7TMRs) or G protein-coupled receptors (GPCRs), exist in multiple signaling conformations and complexes and that ligands (either agonists or antagonists) can induce signaling biased responses for distinct signal transduction cascades.
Furthermore, accumulating evidence over the last decade has drawn attention to a novel function of beta-arrestins as signal transducers that scaffold various signaling molecules upon activation of 7TMRs. […] This beta-arrestin-biased signaling presumably leads to distinct physiological outcomes from those by G protein activation.
Additionally, the active receptor conformations which […] on this beta-arrestin signaling are likely different from those activating G protein signaling
The goal of this screening project will be to discover and optimize novel beta-arrestin-biased ligands for beta2-AR signaling. A luminescent cell-based assay for beta2-AR-mediated agonism, known as the Tango assay, has been validated in which ligand binding of a recombinant beta2-AR and subsequent recruitment of a recombinant beta-arrestin lead to the release of the transcriptional activator tTA, which upregulates transcription of a tTA-responsive luciferase gene. […] Compounds were screened as a concentration-titration series that ranged from 46 microM to 0.6 nM.
NCGC Assay Protocol Summary:
Tango cells were dispensed into white, solid, tissue-culture-treated 1536-well plates at 1500 cells/well in DMEM, containing 1% fetal bovine serum (FBS). Then, 23 nL of compounds or DMSO were delivered to each well using a pin tool. Plates were incubated at 37 degrees C, 5% CO2 for 18 hr. Then 2.5 uL luminescent substrate mix (in-house prepared: 150 mM Tris-Cl, pH 7.6, 3 mM MgCl2, 1% Triton X-100, 5 mM DTT, 0.5 mM CoA, 0.15 mM ATP, 0.44 mM D-luciferin, final concentrations) was added to each well. Plates were then incubated for 15 minutes at room temperature, and subsequently measured on a ViewLux plate reader for luminescent signal using a clear filter with a 10 second exposure and 2x binning. The %Activity was determined from the corrected luminescence values.
Concentration-response curves were fitted to the signals arising from the resulting luminescence. The concentration-effect curves were then classified based on curve quality (r2), response magnitude and degree of measured activity, and compounds were subsequently categorized based on their curve class.
Keywords: biased agonism, beta2-AR, beta-arrestin, GPCR, 7TMR, Tango, luminescence, MLSMR, MLPCN, NIH Roadmap, qHTS, NCGC
Potency means the concentration at half of the fitted maximal effect; tags describe the fitted curve by direction and shape.

Row | Compound | activation | Potency
1 | O=C(/C=C/c1ccc(Br)cc1)NC(=S)N1C[C@H]2C[C@H](C1)c1cccc(=O)n1C2 | inactive: -0.458% | 
2 | Cc1ccc2c(c1)C1CN(C)CCC1N2C(=O)c1ccccc1NS(=O)(=O)c1ccc(F)cc1C (stereo not drawn) |  | inconclusive [rising, single point]
3 | CN(C)c1ccc(NC(=O)Oc2ccccc2)cc1 |  | inconclusive [rising, full curve, poor fit]
4 | CNCC(O)c1ccc(OC(=O)C(C)(C)C)c(OC(=O)C(C)(C)C)c1 (stereo not drawn) |  | inconclusive [activator, full curve]
5 | Clc1ccccc1CN1CCN(c2ccccc2)CC1 | inactive: -0.209% | 
6 | C=C(C=O)CC1CC(O)[C@]2(C)OC3CC4OC5C[C@]6(C)O[C@]7(C)CCC8OC9C[C@]%10(C)OC%11C(C)=CC(=O)OC%11CC%10OC9C[C@@H](C)C8OC7CC6O[C@]5(C)CC5OC5C4OC3CC2O1 (stereo partly drawn) |  | inconclusive [rising, full curve, poor fit]
7 | O=C(NCCCN1CCOCC1)C(Cl)(Cl)Cl |  | inconclusive [rising, single point]
8 | CC(C)N1C(=O)/C(=C/C=C/c2ccco2)C(=O)N(Cc2ccco2)C1=O | inactive: 3.33% | 
9 | Cc1ccc(N2C(=O)NC(=O)/C(=C/C=C/c3ccco3)C2=O)cc1 |  | inconclusive [rising, single point]
10 | CN(C)C(=S)SSC(=S)N(C)C |  | inconclusive [rising, full curve, poor fit]
11 | CCCCn1c(=O)c(C(=O)NCc2ccncc2)c(O)c2ccccc21 |  | inconclusive [rising, single point]
12 | C#CCN[C@H](C)Cc1ccccc1 | inactive: -0.0745% | 
13 | COC(=O)C1=C(C)NC(C)=C(C(=O)OC)C1c1ccccc1[N+](=O)[O-] |  | inconclusive [rising, single point]
14 | OC12ONC(c3ccccn3)C1N1CCC2CC1 (stereo not drawn) |  | active: 18.4 µM
15 | C[C@]12CC[C@H](O)CC1=CC(=O)C1C2CC[C@]2(C)C(=O)[C@H](O)CC12 (stereo partly drawn) |  | inconclusive [rising, single point]
16 | O=C1NC(=O)N(Cc2ccccc2)C(=O)/C1=C/C=C/c1ccco1 |  | inconclusive [rising, single point]
17 | N#Cc1c(Cl)nc(Cl)c2c1CCN(Cc1ccccc1)C2 |  | inconclusive [rising, single point]
18 | COC(=O)C1=C(c2ccc(F)cc2F)C[C@@H]2CC[C@H]1N2C(=O)NCCNC(C)=O |  | inconclusive [rising, single point]
